Test results taken from the supplement of paper PMC4206461.
This is one part of the list.

test system: Pseudomonas aeruginosa PA14 dppA1-A5 penta deletion mutant; assay: respiration area under curve with compound as sole nitrogen source, 24 h (OmniLog AUC (arbitrary units)); higher = more respiration / better utilisation as nitrogen source, active = 2000 or more; extreme values may be limits of the assay; details: plate: PM6
Experimental: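 Biolog Phenotype MicroArray plates PM6-PM8: each di/tripeptide is the sole nitrogen source. Tetrazolium reduction was read in the OmniLog for 24 h at 37°C and summarised as area under the respiration curve (arbitrary units). Values below 2000 count as no respiration.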

Respiration area under curve, active:
C[C@H](N)C(=O)N[C@@H](CO)C(=O)O 8800
C[C@H](N)C(=O)N[C@@H](Cc1ccccc1)C(=O)O 5060
CC[C@H](C)[C@H](NC(=O)[C@@H](N)CCCN=C(N)N)C(=O)O 9510
CC(C)C[C@H](NC(=O)[C@@H](N)CC(C)C)C(=O)O 3110
CC(C)CC(N)C(=O)NC(CC(=O)O)C(=O)O (configuration not stated) 2380
C[C@H](N)C(=O)N[C@@H](Cc1ccc(O)cc1)C(=O)O 5750
C[C@H](NC(=O)[C@@H](N)CCCN=C(N)N)C(=O)O 9930
NC(N)=NCCC[C@H](N)C(=O)N[C@@H](CO)C(=O)O 9420

Respiration area under curve, inactive:
CC[C@H](C)[C@H](N)C(=O)N[C@H](C(=O)O)[C@@H](C)CC 678
NCC(=O)N1CCC[C@H]1C(=O)O 0
CC[C@H](C)[C@H](N)C(=O)N[C@@H](CO)C(=O)O 539
CC[C@H](C)[C@H](N)C(=O)N[C@@H](Cc1ccc(O)cc1)C(=O)O 632
N[C@@H](CC(=O)O)C(=O)N[C@@H](Cc1ccccc1)C(=O)O 163
NCC(=O)N[C@@H](Cc1ccc(O)cc1)C(=O)O 480
CC[C@H](C)[C@H](N)C(=O)N[C@@H](C)C(=O)O 676

same assay, conditions: plate: PM7

Respiration area under curve, active:
CSCCC(N)C(=O)NC(CCCN=C(N)N)C(=O)O (configuration not stated) 13900
CC(C)C[C@H](NC(=O)[C@@H](N)Cc1c[nH]c2ccccc12)C(=O)O 4500
N[C@@H](Cc1ccccc1)C(=O)N[C@@H](Cc1ccccc1)C(=O)O 5040
O=C(O)[C@H](Cc1ccccc1)NC(=O)[C@@H]1CCCN1 3420
N[C@@H](Cc1ccc(O)cc1)C(=O)NCC(=O)O 5000

same assay, conditions: plate: PM8

Respiration area under curve, active:
CC(C)[C@H](N)C(=O)N[C@@H](Cc1ccc(O)cc1)C(=O)N[C@H](C(=O)O)C(C)C 7060
CC(C)[C@H](NC(=O)[C@@H](N)Cc1ccc(O)cc1)C(=O)O 5270
NCC(=O)N[C@@H](CC(N)=O)C(=O)O 13600
C[C@H](N)C(=O)N[C@@H](C)C(=O)N[C@@H](C)C(=O)O 7240
NC(N)=NCCC[C@H](NC(=O)[C@@H]1CCCN1)C(=O)O 8420

Respiration area under curve, inactive:
N[C@@H](Cc1ccccc1)C(=O)N[C@@H](Cc1ccc(O)cc1)C(=O)O 1170
C[C@H](O)[C@@H](NC(=O)CN)C(=O)O 0
C[C@@H](O)[C@H](N)C(=O)N[C@@H](CC(=O)O)C(=O)O 13.9
NC(CO)C(=O)NC(CCC(=O)O)C(=O)O (configuration not stated) 0
CSCC[C@H](N)C(=O)N[C@@H](Cc1ccc(O)cc1)C(=O)O 174
CC(C)C[C@H](N)C(=O)N1CCC[C@H]1C(=O)O 0.429
CC[C@H](C)[C@H](NC(=O)[C@H](C)N)C(=O)O 1180
